Toxic doses and inconclusive results are not listed. The source holds more than one record for some entries. This list holds those alone. An entry can have further records. Values given together repeat one measurement across runs, samples, wells, individuals or studies. Starred links: 1 amine or outer side, 2 acyl side, 3 side chain; linkers in the order of their positions; H or OH if unused. Positions of bridges follow the written chain, without caps; N, C: chain ends. Non-standard residues stand in square brackets, D forms with d. Residues, ends and D or L forms follow the SMILES beside them. Chains are numbered I, II in the order given. Actinocin(9to1) = Cc1c2oc3c(C)ccc(C(=O)[*:1])c3nc-2c(C(=O)[*:2])c(N)c1=O; NMeV = CN[CH](C(=O)O)C(C)C; Sar = CNCC(=O)O
Tested on: BDF1 mice, P388 leukemia ip, median survival T/C
Test: NCI In Vivo Anticancer Drug Screen. Data for tumor model P388 Leukemia (intraperitoneal) in B6D2F1 (BDF1) mice
Settings: endpoint: median survival time, higher = longer survival
Description: The antitumor activity of compounds was measured in mice bearing transplantable tumors. Survival or tumor size were measured and the results are expressed as the measurement made in the treated group (T) divided by the measurement made in the vehicle treated control group (C). The tumor model used in this assay is P388 Leukemia (intraperitoneal) in B6D2F1 (BDF1) mice

[1] = dose: 200.0 mg/kg/injection, schedule: Q01DX009 (ip), vehicle: saline with Tween-80
[2] = dose: 300.0 mg/kg/injection, schedule: Q04DX003 (ip), vehicle: saline with Tween-80

Structure (SMILES): O=C1NC(c2ccccc2)(c2ccccc2)C(=O)N1CCN(CCCl)CCCl
- T/C (dose: 75.0 mg/kg/injection, schedule: Q04DX003 (ip), vehicle: saline with Tween-80): 90 % of control and 172 % of control

Structure (SMILES): C1CCC2[N-]CC3CCCCC3[N-]CC3CCCCC3[N-]CC3CCCCC3[N-]CC2C1.[Cu] (stereo not given)
- T/C (dose: 1.56 mg/kg/injection, schedule: Q01DX009 (ip), vehicle: saline): 123 % of control and 150 % of control

Structure (SMILES): O=P(N1CC1)(N1CC1)N1CCc2ccccc21
- T/C (dose: 67.0 mg/kg/injection, schedule: Q04DX003 (ip), vehicle: saline): 123 % of control, 156 % of control, 165 % of control

Structure (SMILES): COc1ccc(-c2csc(-c3ccccc3)n2)cc1N=Cc1ccc(N(CCCl)CCCl)c(OC)c1
- T/C (dose: 100.0 mg/kg/injection, schedule: Q04DX003 (ip), vehicle: saline with Tween-80): 113 % of control and 175 % of control

Structure (SMILES): C/C=C/C1=C(Cl)C(=O)[C@@H](Cl)[C@@]1(O)C(=O)OC
- T/C (dose: 10.0 mg/kg/injection, schedule: Q01DX009 (ip), vehicle: saline with Tween-80): 98 % of control and 151 % of control

Structure (SMILES): COc1cc2c(cc1O)C(=O)CCCC2
- T/C [1]: 98 % of control and 150 % of control

Structure (SMILES): CC1(C)C=C(C(Br)c2ccc(Cl)cc2)C(=O)c2ccccc21 (stereo not given)
- T/C (dose: 200.0 mg/kg/injection, schedule: Q01DX009 (ip), vehicle: Klucel (hydroxypropylcellulose) (HPC)): 95 % of control and 150 % of control

Structure (SMILES): COc1cccc2c1C(=O)c1c(O)c3c(c(O)c1C2=O)CC(O)(C(C)=O)CC3OC1CC(N)C(O)C(C)O1 (stereo not given)
- T/C (dose: 0.5 mg/kg/injection, schedule: Q01DX001 (ip), vehicle: saline): 113 % of control and 170 % of control
- T/C (dose: 1.0 mg/kg/injection, schedule: Q01DX001 (ip), vehicle: saline): 109 % of control and 180 % of control
- T/C (dose: 2.0 mg/kg/injection, schedule: Q01DX001 (ip), vehicle: saline): 109 % of control and 180 % of control
- T/C (dose: 4.0 mg/kg/injection, schedule: Q01DX001 (ip), vehicle: saline): 118 % of control, 180 % of control, 200 % of control

Structure (SMILES): C[n+]1ccc(Nc2ccc(NC(=O)c3ccc(Nc4cc[n+](C)c5ccc(N)cc45)cc3)cc2)cc1
- T/C (dose: 16.0 mg/kg/injection, schedule: Q01DX009 (ip), vehicle: Klucel (hydroxypropylcellulose) (HPC)): 91 % of control and 200 % of control

Structure (SMILES): Cc1c2oc3c(C)ccc(C(=O)NC4C(=O)NC(C(C)C)C(=O)N(C)CC(=O)N(C)CC(=O)N(C)C(C(C)C)C(=O)OC4C)c3nc-2c(C(=O)NC2C(=O)NC(C(C)C)C(=O)N(C)CC(=O)N(C)CC(=O)N(C)C(C(C)C)C(=O)OC2C)c(N)c1=O (stereo not given) (I: TV[Sar][Sar][NMeV] / II: TV[Sar][Sar][NMeV]; ester I:1-I:C, II:1-II:C; linker I:N-II:N via Actinocin(9to1); configuration not given here)
- T/C (dose: 375.0 micrograms/kg/injection, schedule: Q04DX003 (ip), vehicle: saline + alcohol): 117 % of control and 166 % of control

Structure (SMILES): COc1ccc(C(SCC(N)C(=O)O)(c2ccccc2)c2ccccc2)cc1 (stereo not given)
- T/C (dose: 9.3 mg/kg/injection, schedule: Q01DX009 (ip), vehicle: Klucel (hydroxypropylcellulose) (HPC)): 118 % of control and 170 % of control

Structure (SMILES): C(/C=C\c1ccccc1)=Nc1ccccc1
- T/C [1]: 115 % of control and 150 % of control

Structure (SMILES): O/N=c1/ccn(O)c2ccccc12
- T/C (dose: 0.22 mg/kg/injection, schedule: Q01DX009 (ip), vehicle: saline): 105 % of control and 170 % of control

Structure (SMILES): CCC1=C(C[C@H]2NCCc3cc(OC)c(OC)cc32)C[C@H]2c3cc(OC)c(OC)cc3CCN2C1
- T/C (dose: 22.0 mg/kg/injection, schedule: Q04DX003 (ip), vehicle: saline with Tween-80): 122 % of control and 154 % of control

Structure (SMILES): CC[C@]1(O)C[C@H]2CN(CCc3c([nH]c4ccccc34)[C@@](C(=O)OC)(c3cc4c(cc3OC)N(C=O)[C@H]3[C@@](O)(C(=O)OC)[C@H](OC(C)=O)[C@]5(CC)C=CCN6CC[C@]43[C@@H]65)C2)C1
- T/C (dose: 0.39 mg/kg/injection, schedule: Q04DX002 (ip), vehicle: saline): 109 % of control and 150 % of control
- T/C (dose: 0.78 mg/kg/injection, schedule: Q04DX002 (ip), vehicle: saline): 100 % of control and 175 % of control
- T/C (dose: 1670.0 micrograms/kg/injection, schedule: Q04DX003 (ip), vehicle: saline): 112 % of control and 377 % of control

Structure (SMILES): O=C1C(Cl)=C(N2CC2)C(=O)C(Cl)=C1N1CC1
- T/C (dose: 2.5 mg/kg/injection, schedule: Q01DX009 (ip), vehicle: saline): 121 % of control and 159 % of control

Structure (SMILES): CCCCCCCC[N+](C)(CCCCCCCC)CCCCCCCC
- T/C (dose: 0.64 mg/kg/injection, schedule: Q01DX009 (ip), vehicle: saline): 104 % of control, 116 % of control, 166 % of control

Structure (SMILES): O=P(OCc1ccccc1)(N(CCCl)CCCl)N1CCN(P(=O)(OCc2ccccc2)N(CCCl)CCCl)CC1 (stereo not given)
- T/C [2]: 104 % of control and 188 % of control

Structure (SMILES): C=C(NC(=O)C(=C)NC(=O)c1csc(C2=NC3c4csc(n4)C4NC(=O)c5csc(n5)C(C(C)(O)C(C)O)NC(=O)C5CSC(=N5)/C(=C/C)NC(=O)C(C(C)O)NC(=O)c5csc(n5)C3(CC2)NC(=O)C(C)NC(=O)C(=C)NC(=O)C(C)NC(=O)C(C(C)CC)NC2C=Cc3c(C(C)O)cc(nc3C2O)C(=O)OC4C)n1)C(N)=O (stereo not given)
- T/C (dose: 400.0 mg/kg/injection, schedule: Q01DX009 (ip), vehicle: Klucel (hydroxypropylcellulose) (HPC)): 121 % of control, 183 % of control, 184 % of control

Structure (SMILES): Nc1nc2n[nH]nc2c(=O)[nH]1
- T/C (dose: 50.0 mg/kg/injection, schedule: Q01DX010 (ip), vehicle: alkali diluted with saline): 122 % of control and 155 % of control

Structure (SMILES): CC1(C)N=C(N)N=C(N)N1c1ccc(Cl)c(Cl)c1
- T/C (dose: 15.0 mg/kg/injection, schedule: Q01DX009 (ip), vehicle: Klucel (hydroxypropylcellulose) (HPC)): 109 % of control and 180 % of control

Structure (SMILES): O=c1[nH]c(=O)n(C2CC(O)C(CO)O2)cc1F (stereo not given)
- T/C (dose: 100.0 mg/kg/injection, schedule: Q01DX009 (ip), vehicle: water): 104 % of control, 122 % of control, 200 % of control

Structure (SMILES): ClC1=NC(Cl)C(Cl)=N/C1=N\c1ncn[nH]1 (stereo not given)
- T/C (dose: 33.0 mg/kg/injection, schedule: Q04DX003 (ip), vehicle: saline with Tween-80): 113 % of control and 163 % of control

Structure (SMILES): O=C1NC(C2CCC3CN32)C(=O)NC1C1CCC2CN21 (stereo not given)
- T/C (dose: 0.4 mg/kg/injection, schedule: Q01DX009 (ip), vehicle: saline): 100 % of control and 150 % of control

Structure (SMILES): NC(=S)/N=C\C(CC(O)C(O)C(O)CO)=N\NC(N)=S (stereo not given)
- T/C (dose: 25.0 mg/kg/injection, schedule: Q01DX009 (ip), vehicle: saline with Tween-80): 89 % of control, 97 % of control, 170 % of control

Structure (SMILES): Cc1cc2c(c3oc(C4(C)OC4C4OC4C)cc(=O)c13)C(=O)c1c(O)c(C3CC(C)(N(C)C)C(O)C(C)O3)cc(C3CC(N(C)C)C(O)C(C)O3)c1C2=O (stereo not given)
- T/C (dose: 1.0 micrograms/kg/injection, schedule: Q01DX010 (ip), vehicle: carboxymethylcellulose (CMC)): 113 % of control and 170 % of control
- T/C (dose: 2.0 micrograms/kg/injection, schedule: Q01DX010 (ip), vehicle: carboxymethylcellulose (CMC)): 109 % of control and 200 % of control
- T/C (dose: 2.0 micrograms/kg/injection, schedule: Q01DX010 (ip), vehicle: saline): 120 % of control and 150 % of control

Structure (SMILES): NC(=S)N/N=C/c1ccccn1
- T/C (dose: 3.75 mg/kg/injection, schedule: Q01DX010 (ip), vehicle: saline): 108 % of control and 155 % of control

Structure (SMILES): CSCS(=O)C[C@H](CO)NC(=O)/C=C/c1c(C)[nH]c(=O)[nH]c1=O (stereo not given in full)
- T/C (dose: 3.13 mg/kg/injection, schedule: Q04DX002 (ip), vehicle: Klucel (hydroxypropylcellulose) (HPC)): 109 % of control and 166 % of control

Structure (SMILES): CCOC(=O)C(Cc1ccc(N(CCCl)CCCl)cc1)NC(=O)C(Cc1ccccc1)NC=O (stereo not given)
- T/C [2]: 95 % of control and 172 % of control

Structure (SMILES): COc1cc2cc[n+]3c(C)c4ccc(OC)c(OC)c4cc3c2cc1OC (tested in a mixture with another compound)
- T/C (dose: 10.0 mg/kg/injection, schedule: Q01DX009 (ip), vehicle: saline): 115 % of control and 157 % of control

Structure (SMILES): CC[N+](CC)(CC)CC
- T/C (dose: 4.0 mg/kg/injection, schedule: Q01DX009 (ip), vehicle: saline with Tween-80): 118 % of control and 155 % of control

Structure (SMILES): C/C=C/c1ccc2ccc[n+](C)c2c1O
- T/C (dose: 50.0 mg/kg/injection, schedule: Q04DX003 (ip), vehicle: saline sonified): 113 % of control and 190 % of control

Structure (SMILES): O=C1C=C(C2OC(CO)C(O)C2O)C(=O)N1 (stereo not given)
- T/C (dose: 4.0 mg/kg/injection, schedule: Q01DX010 (ip), vehicle: saline): 110 % of control, 150 % of control, 155 % of control

Structure (SMILES): CCOC1OCN(C)CC1(C)C (stereo not given)
- T/C (dose: 44.0 mg/kg/injection, schedule: Q01DX009 (ip), vehicle: saline): 111 % of control and 154 % of control

Structure (SMILES): Cc1cc2c3ccccc3ccc2[n+]2ccccc12
- T/C (dose: 12.37 mg/kg/injection, schedule: Q01DX009 (ip), vehicle: saline): 100 % of control and 165 % of control

Structure (SMILES): CCCCOP(=O)(N1CC1CC)N1CC1CC (stereo not given)
- T/C (dose: 200.0 mg/kg/injection, schedule: Q04DX003 (ip), vehicle: saline): 124 % of control and 176 % of control

Structure (SMILES): COc1cc2cc3c4cc(OC)c(OC)cc4cc[n+]3c(C)c2cc1OC
- T/C (dose: 50.0 mg/kg/injection, schedule: Q01DX009 (ip), vehicle: saline with Tween-80): 100 % of control and 163 % of control

Structure (SMILES): N#Cc1ccc(NC(=O)N(CCCl)N=O)cc1
- T/C (dose: 1.3 mg/kg/injection, schedule: Q04DX003 (ip), vehicle: Klucel (hydroxypropylcellulose) (HPC)): 115 % of control and 150 % of control

From PubChem BioAssay AID328 (DTP/NCI, 2004)
